Laboratory results from PubChem BioAssay AID686978 (National Center for Advancing Translational Sciences (NCATS), 2013).
Among all 420,000 compounds or so, about 64,000 (15%) were called active. The inconclusive results got no clear call from the source; some entries with a clear call stand among them for comparison. Calls come from the whole dose curve; as a rule, active = well fitted inhibition curve with a large enough effect; inconclusive = small, poorly fitted or top-dose-only effect; inactive = flat fitted curve, though single readings scatter. No potency is given beside an inconclusive call; the fits are too rough.

test: qHTS for Inhibitors of human tyrosyl-DNA phosphodiesterase 1 (TDP1): qHTS in cells in absence of CPT; settings: DT40 Tdp1-/- hTDP1 cells, no CPT, ATP luminescence, 48 h; activity change, negative = growth inhibition: at 46.2 µM (top of the series); note: nearly all actives have a fitted effect of over 55% in size
How it was run: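 Cells were dispensed at 400 per well, compounds added by pin tool, plates incubated ≥48 hr at 37 °C, then CellTiter-Glo added for 30 min at room temperature before luminescence reading. Line: DT40 Tdp1-/- complemented with hTDP1; camptothecin omitted.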
% is set by controls: 0 for no effect and ±100 for the full control effect; potency is the fitted concentration of half-maximal effect; tags give direction and shape of the fitted curve.

Structure (SMILES)	activity change, negative = growth inhibition	Potency
Cc1cc(C)nc(SCCCNCc2c(F)cccc2Cl)n1	inactive: -15.1%	–
CCC(C)(C)n1nnnc1C(c1ccc(C)cc1)N1CCSCC1 (stereo unspecified)	–	inconclusive [inhibitor, single point]
CC(=O)Oc1ccc2ccccc2c1C(NC(=O)Cc1ccccc1)c1ccc(Cl)cc1 (stereo unspecified)	–	active: 20.6 µM
CCOC(=O)c1ccc(NC(=O)CSc2nccn2-c2cc(C)cc(C)c2)cc1	–	active: 18.4 µM
COCCN1CCN(Cc2nc(C3(c4ccc(C)cc4)CCCC3)no2)CC1	inactive: -26.8%	–
O=C(COC(=O)c1ccc(O)cc1O)c1ccc2c(c1)OCCO2	–	inconclusive [inhibitor, single point]
CC(=O)c1ccc(N2CCN(C(=O)CCn3cnc4onc(-c5ccc(F)cc5)c4c3=O)CC2)cc1	–	inconclusive [inhibitor, partial curve]
O=C(Cn1c(=O)oc2ccccc21)N1CCN(c2ccccc2)CC1	inactive: -16.5%	–
COc1cc(OC)cc(-c2nc3ccccc3c(=O)n2OC(=O)c2ccc(C)c(C)c2)c1	–	inconclusive [inhibitor, single point]
CC(C)O/N=C1\C(=O)N(c2ccccc2)c2ccccc21	–	inconclusive [inhibitor, single point]
Cc1cc(C)cc(OCC(=O)Nc2ccncc2)c1	–	inconclusive [inhibitor, single point]
Cc1c(C)c2c(OCC(=O)Nc3cccnc3)cc3c(c2oc1=O)CCC(C)(C)O3	inactive: -25.1%	–
O=C(COC(=O)COc1ccccc1)NC1CCCc2ccccc21 (stereo unspecified)	inactive: -14.3%	–
CCOc1ccc(Oc2ccc(C(F)(F)F)cc2NC(=O)C2=COCCO2)cc1	–	inconclusive [inhibitor, single point]
CC(C)C1C(=O)N(Cc2cn(CCC3OCCCO3)nn2)CCS(=O)(=O)N1Cc1ccc(-c2ccc(F)nc2)cc1 (stereo unspecified)	–	active: 16.4 µM
O=C(CCc1nnc(-c2ccsc2)o1)N1CCCCC1CCn1ccnc1 (stereo unspecified)	inactive: 11.4%	–
Cc1ccc(N2CCN(/N=C/c3ccccc3[N+](=O)[O-])CC2)cc1	–	inconclusive [inhibitor, single point]
CCCn1c(C(O)c2ccc(OC)c(OC)c2)nc2ccccc21 (stereo unspecified)	–	inconclusive [inhibitor, partial curve]
CCOC(=O)N/N=C\c1ccc(-c2cccc(C(F)(F)F)c2)o1	–	inconclusive [inhibitor, partial curve, poor fit]
COc1ccc(NC(=O)C2(c3cccs3)CCOCC2)cc1	inactive: 2.61%	–
O=C(O)c1ccccc1C(=O)Nc1ccccc1[N+](=O)[O-]	inactive: -0.699%	–
COc1ccc(C2C=C(c3ccccc3)Nc3ncnn32)cc1 (stereo unspecified)	–	inconclusive [inhibitor, partial curve]
Cc1cc(C)c(C)c(S(=O)(=O)ON2C(=O)c3ccccc3C2=O)c1C	–	active: 2.31 µM

Structure (SMILES)	activity change, negative = growth inhibition	Potency
COc1cccc2c1OC1(C)CC2NC(=O)N1c1cccc(C(=O)N2CCN(c3ccccc3)CC2)c1 (stereo unspecified)	–	inconclusive [inhibitor, single point]
Cc1ccc(-c2noc(-c3cc(-c4ccc(F)cc4)n[nH]3)n2)cc1	–	inconclusive [inhibitor, single point]
CCN(CC)c1ccc2cc(-c3nc(-c4cc5ccccc5oc4=O)cs3)c(=O)oc2c1	inactive: -8.27%	–
CCS(=O)(=O)Nc1ccc(Cc2ccc(NS(=O)(=O)CC)cc2)cc1	–	inconclusive [inhibitor, partial curve]
O=C(Nc1c(-c2ccccc2)nc2ccccn12)c1ccccc1F	–	inconclusive [inhibitor, single point]
Cc1ccc(C(=O)OCC(=O)Nc2ccccc2N2CCOCC2)cc1	–	inconclusive [inhibitor, partial curve]
CCOc1ccc(-n2c(SCc3ccc(C(=O)OC)o3)nc3c(c2=O)SCC3)cc1	–	inconclusive [inhibitor, single point]
COc1cc2c(cc1OC)C(c1cccc(F)c1)CC(=O)N2 (stereo unspecified)	–	inconclusive [inhibitor, partial curve]
Cc1ccc(C)c(S(=O)(=O)Nc2ccccc2C(=O)Nc2cc(C)on2)c1	–	inconclusive [inhibitor, partial curve]
CC(C)C(OC(=O)Cn1nnc2ccccc21)C(=O)NC1CCCC1 (stereo unspecified)	inactive: 3.73%	–
CC(c1ccco1)N(C(=O)c1ccccc1NS(=O)(=O)c1ccc(Cl)cc1)c1ccccn1 (stereo unspecified)	–	inconclusive [inhibitor, single point]
CCn1cc(C(=O)NCCc2ccc(C)cc2)c(=O)c2cc(S(=O)(=O)N3CCc4ccccc4C3)ccc21	–	inconclusive [inhibitor, partial curve, poor fit]
Cc1cc(-c2csc(N)n2)c(C)n1-c1ccc(Cl)c(Cl)c1	–	inconclusive [inhibitor, single point]
COC(=O)C1C(=O)c2c([nH]c(C(=O)OC3CCCC3)c2C)CC1C (stereo unspecified)	–	inconclusive [inhibitor, single point]
CCc1cccc(CC)c1NC(=O)COC(=O)C1(c2ccc(Cl)cc2)CCCC1	–	inconclusive [inhibitor, single point]
Cc1ccc(CSCC(=O)N(C)CC(=O)Nc2ccc(C)cc2)cc1	–	inconclusive [inhibitor, partial curve]
C=CCNC(=O)c1ccc2c3n(nc2c1)-c1ccccc1CO3	–	active: 23.1 µM
COc1ccc(N2C(=O)/C(=C\c3ccco3)N=C2SCC(=O)NC(C)(C)C)cc1Cl	–	inconclusive [inhibitor, partial curve]
CC(N)CCCP(=O)(O)O (stereo unspecified)	inactive: -11.4%	–
Cc1ccc(-c2nc3n(n2)Cc2ccccc2-3)cc1	–	inconclusive [inhibitor, single point]
Nc1nc(N)c(N=Nc2ccc(Cl)cc2)c(=O)[nH]1	inactive: -16.3%	–
O=C(Cc1c[nH]c2ccccc12)OCC(=O)c1ccccc1	inactive: -18.1%	–
Cn1c(CCc2ccc(N)cc2)nc2ccccc21	–	inconclusive [inhibitor, single point]
